# The whole screen tested about 310,000 compounds, of which about 14,000 (4.5%) showed an effect of 50% or more. Effects have a minus sign here. This is one part of the list.
# Biological target: human ether-à-go-go-related gene (hERG) potassium channel (human, UniProt Q12809)
# Test: primary screen, population patch clamp on CHO cells stably expressing hERG
# 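Note: peak tail current of the secondary pulse compared with the same well before compound.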
# Sequence of human ether-à-go-go-related gene (hERG) potassium channel (Q12809 whole entry, looked up): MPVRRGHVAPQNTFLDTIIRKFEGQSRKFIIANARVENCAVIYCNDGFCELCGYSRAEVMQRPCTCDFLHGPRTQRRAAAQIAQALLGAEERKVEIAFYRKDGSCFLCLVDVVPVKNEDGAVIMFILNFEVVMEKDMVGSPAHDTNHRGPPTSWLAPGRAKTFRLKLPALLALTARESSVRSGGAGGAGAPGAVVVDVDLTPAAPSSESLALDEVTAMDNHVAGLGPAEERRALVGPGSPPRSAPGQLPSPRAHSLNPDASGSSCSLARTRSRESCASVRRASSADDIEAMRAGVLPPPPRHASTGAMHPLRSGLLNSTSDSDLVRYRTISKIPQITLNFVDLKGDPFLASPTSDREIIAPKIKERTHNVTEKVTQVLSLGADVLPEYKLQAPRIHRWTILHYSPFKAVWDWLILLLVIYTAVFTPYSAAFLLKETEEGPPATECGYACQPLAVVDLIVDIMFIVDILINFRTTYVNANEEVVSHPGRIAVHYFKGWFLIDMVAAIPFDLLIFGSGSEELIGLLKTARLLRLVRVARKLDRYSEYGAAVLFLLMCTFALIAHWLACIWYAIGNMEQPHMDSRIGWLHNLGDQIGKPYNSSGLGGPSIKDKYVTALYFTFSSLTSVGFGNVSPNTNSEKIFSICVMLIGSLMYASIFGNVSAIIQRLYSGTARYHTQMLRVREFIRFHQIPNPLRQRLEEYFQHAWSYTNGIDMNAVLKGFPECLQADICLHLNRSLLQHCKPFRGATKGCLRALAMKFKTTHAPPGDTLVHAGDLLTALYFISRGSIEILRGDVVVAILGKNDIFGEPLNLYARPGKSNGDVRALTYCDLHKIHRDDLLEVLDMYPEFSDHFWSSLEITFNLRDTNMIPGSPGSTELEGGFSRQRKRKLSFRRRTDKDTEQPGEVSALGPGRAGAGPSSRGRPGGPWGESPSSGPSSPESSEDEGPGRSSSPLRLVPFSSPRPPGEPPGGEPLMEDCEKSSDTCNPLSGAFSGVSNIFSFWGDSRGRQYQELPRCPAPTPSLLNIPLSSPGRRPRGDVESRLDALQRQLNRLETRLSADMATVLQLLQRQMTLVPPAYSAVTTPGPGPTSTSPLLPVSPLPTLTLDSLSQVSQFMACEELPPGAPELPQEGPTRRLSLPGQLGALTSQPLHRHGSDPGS
row,Compound,"hERG current change (%, negative = inhibition) at 10uM [%]"
1,O=C(Nc1ccc(F)cc1)C1CCN(C(=O)c2ccc([N+](=O)[O-])cc2)CC1,-4.16
2,Cn1c(CO)cnc1S(=O)(=O)Cc1ccc(Cl)cc1,5.81
3,N#CCC(=O)N1CCn2c1nc1ccccc12,17.2
4,CCC(C)NC(=O)c1ccc2c(Cl)c3c(nc2c1)CCC3 (centres unmarked),-23.6
5,Cc1cc(C)nc(NS(=O)(=O)c2ccc(N3Cc4ccccc4C3=O)cc2)n1,12.2
6,COc1cc(O)oc1C=Nc1ccc(Cl)cc1,-4.28
7,O=S(=O)(c1ccc(N2CCN(c3ccc(F)cc3)CC2)cc1)N1CCCC1,6.07
8,CC(C)c1cc(=O)n2[nH]c(SCc3ccc(Cl)cc3)nc2n1,27.6
9,CCC(=O)N(Cc1cc(=O)[nH]c2ccccc12)c1cccc(C)c1,3.53
10,Cc1cc(=O)[nH]c(SCC(=O)Nc2ccc(Br)cc2)n1,-3.99
11,CCCCCCCCCCCCN1[C@@H](CC(C)=O)c2cc(F)ccc2S1(=O)=O,6.96
12,O=S(=O)(NCCN1CCOCC1)c1ccc(Oc2ccccc2Cl)cc1,-20.7
13,CCOc1ccccc1NC(=O)C(OC(=O)c1cnccn1)c1ccccc1 (centres unmarked),-1.43
14,CCCCCn1c(CN2CCN(Cc3ccccc3)CC2)nc2c1c(=O)[nH]c(=O)n2C,-72.3
15,COc1ccc(NC(=O)CSc2nnc(-c3ccccc3)n2N)cc1,-4.04
16,COc1ccc(Cn2c(=S)[nH]c3cc(OC)c(OC)cc3c2=O)cc1,20.4
17,Cc1nc2ccccc2c(=O)n1-c1ccc(NS(=O)(=O)c2ccc(F)cc2)cc1,-36.8
18,O=C(NCc1ccco1)c1nn2c(C(F)(F)F)cc(-c3cccs3)nc2c1Br,-16.3
19,O=C(Cn1ncn2c(cc3sccc32)c1=O)NC1CCCC1,7.29

row,Compound,"hERG current change (%, negative = inhibition) at 10uM [%]"
1,COC(=O)c1c(NC(=O)/C=C/C(=O)O)sc(C)c1-c1ccc(C)cc1,-16.6
2,O=C(O)/C(=N/NC(=O)c1ccc(Cl)cc1)c1ccccc1,8.68
3,COc1ccc(C(=O)NCc2n[nH]c(=S)n2-c2ccccc2)cc1OC,23.2
4,O=[N+]([O-])c1cc(C2Nc3cccc4cccc(c34)N2)ccc1Cl,13.5
5,CN1CCCN(C(=O)Cc2c(Cl)cccc2Cl)c2nc3ccccc3nc21,13
6,COc1cccc(NC(=O)N2CCCC2C(=O)Nc2ccc3c(c2)OCCO3)c1 (centres unmarked),12.8
7,Cc1csc(NC(=O)CS(=O)(=O)c2ccccc2)n1,-18.1
8,CCn1c(COc2ccccc2)nnc1SCC(=O)Nc1cc(C)ccc1OC,-37.5
9,O=C(NNC(=O)c1ccccc1Br)c1cccs1,-1.19
10,CC1CCc2c(sc(NC(=O)Cn3cnc([N+](=O)[O-])n3)c2C(N)=O)C1 (centres unmarked),16.5
11,C/C(=N\NC(=O)CN1CCN(S(=O)(=O)c2ccc(C)cc2)CC1)c1ccc(O)cc1,-6.97
12,CSc1ccccc1OCc1cc(C(=O)NCCn2nc(C)cc2C)no1,-0.00922
13,CN(Cc1ccccc1)S(=O)(=O)c1nnc(NC(=O)c2ccc(F)cc2)s1,1.42
14,O=C(Oc1ccccc1[N+](=O)[O-])c1cccnc1,-11.8
15,COc1ccc(-c2ccc(NCCC3=CCCCC3)nn2)cc1OC,25.7
16,Cc1cc2c3c([nH]c2cc1S(=O)(=O)NCc1ccc(CN2CCCCCC2)o1)CC(C)(C)CC3=O,11.9
17,Cn1c(=O)oc2cc(S(=O)(=O)N3CCC(C(=O)NCc4ccccc4Cl)CC3)ccc21,4.22
18,COc1ccccc1N1CCN(c2nc3c(C)cccn3c(=O)c2C=O)CC1,-32.4
19,O=C(NCCS(=O)(=O)N1CCN(c2ccccc2)CC1)c1ccco1,-14.5

row,Compound,"hERG current change (%, negative = inhibition) at 10uM [%]"
1,COc1ccc(NC(=O)C(CC(C)C)NC(=O)c2ccccc2C)cn1 (centres unmarked),-6.2
2,CC1(C)NC(=O)N(CCCCOc2cccc(C(F)(F)F)c2)C1=O,-6.92
3,CC(=O)Oc1ccc(C(=O)Nc2nccs2)cc1,4.34
4,COc1cccc(/C=N/n2c(N)nc3ccccc32)c1OC,3.13
5,COCC1CCN(C(=O)C2CCC(=O)N(Cc3ccc(Cl)cc3)C2)CC1 (centres unmarked),-4.15
6,Cc1ccc(S(=O)(=O)CC(=O)Nc2nccs2)cc1,0.295
7,Cn1c(CCC(=O)OCC(=O)NCc2ccccc2Cl)nc(=O)c2ccccc21,13.1
8,CC(C)(C)c1ccc(NC(=O)CN2C(=O)NC(C)(C3CC3)C2=O)cc1 (centres unmarked),-25.5
9,Cc1cccc(C)c1N1C(=O)[C@@H]2C(c3ccccc3Cl)=NO[C@@H]2C1=O,11.8
10,O=C(N/N=C/c1ccc[nH]1)c1ccc(O)cc1,19.6
11,Cc1cc(=O)oc2cc(NC(=O)CN3C(=O)NC(C)(c4ccccc4)C3=O)ccc12 (centres unmarked),11.3
12,Cc1ccc(C)n1-c1cccc(N)c1,-8.63
13,COc1ccc(CNC(=O)Cn2cccc2C(=O)c2ccccc2)cc1,-2.71
14,CCOc1cc(C2C(C#N)=C(N)OC(C)=C2C(C)=O)c(Br)c(Br)c1OC(C)C (centres unmarked),4.61
15,COc1ccc(S(=O)(=O)N(CCCN2CCOCC2)Cc2cccc(OC)c2OC)cc1,-12.5
16,CCC(O)(CC)C(=O)N=Nc1c(O)[nH]c2ccccc12,14.5
17,CC(=O)Nc1cccc(C(=O)OC(C)C(=O)NCc2ccc3c(c2)OCO3)c1 (centres unmarked),-2.69
18,O=C(N=C1SC2CS(=O)(=O)CC2N1c1ccc(F)c(Cl)c1)C1CC1 (centres unmarked),-2.29

# Reference: publication PMC4336329 (PLoS ONE, 2015)
